Laboratory results as given in the supplement of paper PMC7125110.
± gives the standard error. This sample is rich in variants without activity.

B1: glmS ribozyme (parent)
chain: AUAAAAGCGCCAGAACUACAGAAAUGUAGUUGACGAGGAGGAGGUUUAUCGAAUUUUCGGCGGAUGCCUCCAAA

Variants of: B1
Test: self-cleavage kobs at 160 uM GlcN6P; higher = faster cleavage; RNA array
Settings: with glucosamine-6-phosphate
In short: (§1)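 Barcoded glmS ribozyme variants on sequenced MiSeq chips were transcribed in situ by E. coli RNA polymerase and tracked through a hybridised Cy3 probe at 37 °C. Glucosamine-6-phosphate (40 μM to 10 mM) in HEPES/KCl/Mg(OAc)2 buffer was flowed in, and tiles were imaged over ~14 h. Signals were normalised to baseline and to non-cleaving reference variants; per-tile medians were fit to one- or two-exponential decays to give kobs. kcat and KM came from weighted Michaelis–Menten fits across concentrations.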

Row | Variant | self-cleavage kobs at 160 uM GlcN6P
1 | G38A U46A U47G A52G C61A | < 1e-05 s⁻¹
2 | G38C A39C G40U U57A | < 1e-05 s⁻¹
3 | A39C C71G | < 1e-05 s⁻¹
4 | G40A G41U A52G | < 1e-05 s⁻¹
5 | G40C A42C A52C | < 1e-05 s⁻¹
6 | A42G G59U A64G | < 1e-05 s⁻¹
7 | A42U U49C | < 1e-05 s⁻¹
8 | G43C C61U U65G | < 1e-05 s⁻¹
9 | G43C U45C A48U | < 1e-05 s⁻¹
10 | G44C U56A | < 1e-05 s⁻¹
11 | U45C U54A G62U | < 1e-05 s⁻¹
12 | U46A G60C G63A | < 1e-05 s⁻¹
13 | U46C C58U C67A | < 1e-05 s⁻¹
14 | U46G C61A C70U | < 1e-05 s⁻¹
15 | A48C G59U U69C | < 1e-05 s⁻¹
16 | A52C U57A | < 1e-05 s⁻¹
17 | U55A G59A G60C | < 1e-05 s⁻¹
18 | U57G G62C A64U | < 1e-05 s⁻¹
19 | C58G G66U | < 1e-05 s⁻¹
20 | C58G U65A | < 1e-05 s⁻¹
21 | G59U C71U | < 1e-05 s⁻¹
22 | G60A C61U G63A | < 1e-05 s⁻¹
23 | C61U C71G | < 1e-05 s⁻¹

Variants of: B1
Test: self-cleavage kobs at 10000 uM GlcN6P; higher = faster cleavage; RNA array
Settings: with glucosamine-6-phosphate
In short: as §1

Row | Variant | self-cleavage kobs at 10000 uM GlcN6P
24 | G38C A39C G40U U57A | < 1e-05 s⁻¹
25 | A42U U49C | < 1e-05 s⁻¹
26 | U55A G59A G60C | < 1e-05 s⁻¹
27 | U57G G62C A64U | < 1e-05 s⁻¹
28 | A6C A39G | 6.11e-05 ± 1.4e-05 s⁻¹
29 | A6G C10G A36G U47C | < 1e-05 s⁻¹
30 | A6U U31A | 9.85e-05 ± 2.2e-05 s⁻¹
31 | G7A A42U | < 1e-05 s⁻¹
32 | G7C A14G C16G U69A | < 1e-05 s⁻¹
33 | G7C U31A C71G | < 1e-05 s⁻¹
34 | G7U C34U G60U A64G | < 1e-05 s⁻¹
35 | C8A G35C A64C | < 1e-05 s⁻¹
36 | C8A G66A | < 1e-05 s⁻¹

Variants of: B1
Test: self-cleavage kobs at 2500 uM GlcN6P; higher = faster cleavage; RNA array
Settings: with glucosamine-6-phosphate
In short: as §1

Row | Variant | self-cleavage kobs at 2500 uM GlcN6P
37 | A42U U49C | < 1e-05 s⁻¹
38 | G43C U45C A48U | < 1e-05 s⁻¹
39 | U46A G60C G63A | < 1e-05 s⁻¹
40 | A48C G59U U69C | < 1e-05 s⁻¹
41 | U55A G59A G60C | < 1e-05 s⁻¹
42 | U57G G62C A64U | < 1e-05 s⁻¹
43 | G60A C61U G63A | < 1e-05 s⁻¹
44 | U2C C61G | < 1e-05 s⁻¹
45 | A6C A12G A53U | < 1e-05 s⁻¹
46 | A6C A14G G37A G60C | < 1e-05 s⁻¹
47 | A6C A15U U45A A52U G63C | < 1e-05 s⁻¹
48 | A6C A39G | 5.42e-05 ± 1.9e-05 s⁻¹
49 | A6C A42U G59U | < 1e-05 s⁻¹
50 | A6C G29C A33U G37U | < 1e-05 s⁻¹
51 | A6C G35A U47C G60U | < 1e-05 s⁻¹
52 | A6C G35A U49C | < 1e-05 s⁻¹
53 | A6C U49C G59U U65A | < 1e-05 s⁻¹
54 | A6C U55G C71U | 6.13e-05 ± 2e-05 s⁻¹
55 | A6G A39C G41C C70U C71G | < 1e-05 s⁻¹
56 | A6G C10G A36G U47C | < 1e-05 s⁻¹
57 | A6G C10U G35U G40U | < 1e-05 s⁻¹
58 | A6G C16G G40U A64U | < 1e-05 s⁻¹

Row | Variant | self-cleavage kobs at 2500 uM GlcN6P
59 | A6G C16G U54C C61A | < 1e-05 s⁻¹
60 | A6G G13U G37A A53C | < 1e-05 s⁻¹
61 | A6G U54A C61A | < 1e-05 s⁻¹
62 | A6U A14C G35A | < 1e-05 s⁻¹
63 | A6U A33C A64G C68G C70U | < 1e-05 s⁻¹
64 | A6U A36C U55G | < 1e-05 s⁻¹
65 | A6U A52G U55C | < 1e-05 s⁻¹
66 | A6U C8A A33C U65G | < 1e-05 s⁻¹
67 | A6U C16G G29U G43C U47G U54C | < 1e-05 s⁻¹
68 | A6U C34A G44A | < 1e-05 s⁻¹
69 | A6U C50U | < 1e-05 s⁻¹
70 | A6U G9A G32A C70A | < 1e-05 s⁻¹
71 | A6U G32C C34U | < 1e-05 s⁻¹
72 | A6U G38C U47G A52U C68A | < 1e-05 s⁻¹
73 | A6U G38U U45C G63U | < 1e-05 s⁻¹
74 | A6U G44U G63C | < 1e-05 s⁻¹
75 | A6U U31A | 8.83e-05 ± 2.1e-05 s⁻¹
76 | G7A A15C G41A A42C G44A | < 1e-05 s⁻¹
77 | G7A A33G | < 1e-05 s⁻¹
78 | G7A A39C G59C C70U | < 1e-05 s⁻¹
79 | G7A A42U | < 1e-05 s⁻¹
80 | G7A A53U G59C | < 1e-05 s⁻¹

Row | Variant | self-cleavage kobs at 2500 uM GlcN6P
81 | G7A C16A A39U G40A | < 1e-05 s⁻¹
82 | G7A G13A U30C C34U C70U | < 1e-05 s⁻¹
83 | G7C A14G C16G U69A | < 1e-05 s⁻¹
84 | G7C A36G G37C U56A G66A | < 1e-05 s⁻¹
85 | G7C A48G C50G | < 1e-05 s⁻¹
86 | G7C G32U U45C U49C | < 1e-05 s⁻¹
87 | G7C U31A C71G | < 1e-05 s⁻¹
88 | G7U A14G A33C | < 1e-05 s⁻¹
89 | G7U C8U G41U U55G | < 1e-05 s⁻¹
90 | G7U C34U G60U A64G | < 1e-05 s⁻¹
91 | G7U C61U C71U | < 1e-05 s⁻¹
92 | G7U G9U U31C U56C | < 1e-05 s⁻¹
93 | G7U G41C C61U | < 1e-05 s⁻¹
94 | C8A C11U C70U | < 1e-05 s⁻¹
95 | C8A C50A C68A | < 1e-05 s⁻¹
96 | C8A G35C A64C | < 1e-05 s⁻¹
97 | C8A G66A | < 1e-05 s⁻¹
98 | C8A U54C G63C | < 1e-05 s⁻¹
99 | C8G A64U U69A | < 1e-05 s⁻¹
100 | C8G C10G A14U G60C C70U | < 1e-05 s⁻¹
